# Measurements published in the supplement of paper PMC8728848.
# Some of the results follow.
# Legend:
# Test in all cases: glycan array binding signal (z-score within array); higher = stronger binding
# Details in all cases: glycan notation: IUPAC condensed, linker removed
# [1] = molecular target: GlcNAc(b1-2)Man(a1-3)[GlcNAc(b1-2)Man(a1-6)]Man(b1-4)GlcNAc(b1-4)GlcNAc
# In short: (§1)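 Arrays were curated from the Consortium for Functional Glycomics database, 3228 in total, and kept only where the protein sequence was available. Binding is expressed as a within-array Z-score. This score was averaged across arrays of the same protein sequence at different concentrations or buffers and across linkers, and negative values can be read as non-binding.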
# [2] = molecular target: GlcNAc(b1-2)Man(a1-3)[GlcNAc(b1-2)Man(a1-6)]Man(b1-4)GlcNAc(b1-4)[Fuc(a1-6)]GlcNAc
# In short: as §1
# [3] = molecular target: GlcNAc(b1-2)Man(a1-3)[GlcNAc(b1-4)][GlcNAc(b1-2)Man(a1-6)]Man(b1-4)GlcNAc(b1-4)GlcNAc
# In short: as §1
# [4] = molecular target: GlcNAc(b1-2)Man(a1-3)[GlcNAc(b1-4)][GlcNAc(b1-2)Man(a1-6)]Man(b1-4)GlcNAc(b1-4)[Fuc(a1-6)]GlcNAc
# In short: as §1
# [5] = molecular target: GlcNAc(b1-2)[GlcNAc(b1-4)]Man(a1-3)[GlcNAc(b1-2)Man(a1-6)]Man(b1-4)GlcNAc(b1-4)GlcNAc
# In short: as §1
# [6] = molecular target: GlcNAc(b1-2)[GlcNAc(b1-4)]Man(a1-3)[GlcNAc(b1-4)][GlcNAc(b1-2)Man(a1-6)]Man(b1-4)GlcNAc(b1-4)GlcNAc
# In short: as §1
# [7] = molecular target: GlcNAc(b1-2)[GlcNAc(b1-4)]Man(a1-3)[GlcNAc(b1-4)][GlcNAc(b1-2)[GlcNAc(b1-6)]Man(a1-6)]Man(b1-4)GlcNAc(b1-4)GlcNAc
# In short: as §1
# [8] = molecular target: GlcNAc(b1-2)[GlcNAc(b1-4)]Man(a1-3)[GlcNAc(b1-4)][GlcNAc(b1-2)[GlcNAc(b1-6)]Man(a1-6)]Man(b1-4)GlcNAc(b1-4)[Fuc(a1-6)]GlcNAc
# In short: as §1
# [9] = molecular target: GlcNAc(b1-2)[GlcNAc(b1-6)]Man(a1-6)[GlcNAc(b1-2)Man(a1-3)]Man(b1-4)GlcNAc(b1-4)GlcNAc
# In short: as §1
# [10] = molecular target: GlcNAc(b1-2)[GlcNAc(b1-6)]Man(a1-6)[GlcNAc(b1-2)Man(a1-3)]Man(b1-4)GlcNAc(b1-4)[Fuc(a1-6)]GlcNAc
# In short: as §1
# [11] = molecular target: GlcNAc(b1-2)[GlcNAc(b1-6)]Man(a1-6)[GlcNAc(b1-4)][GlcNAc(b1-2)Man(a1-3)]Man(b1-4)GlcNAc(b1-4)GlcNAc
# In short: as §1
# GlcNAc(b1-3)Fuc = molecular target: GlcNAc(b1-3)Fuc
# In short: as §1
# GlcNAc(b1-3)Gal = molecular target: GlcNAc(b1-3)Gal
# In short: as §1
# [12] = molecular target: GlcNAc(b1-3)Gal(b1-3)GalNAc
# In short: as §1
# GlcNAc(b1-3)Gal(b1-4)Glc = molecular target: GlcNAc(b1-3)Gal(b1-4)Glc
# In short: as §1
# [13] = molecular target: GlcNAc(b1-3)Gal(b1-4)GlcNAc
# In short: as §1
# [14] = molecular target: GlcNAc(b1-3)Gal(b1-4)GlcNAc(b1-2)Man(a1-3)[GlcNAc(b1-3)Gal(b1-4)GlcNAc(b1-2)Man(a1-6)]Man(b1-4)GlcNAc(b1-4)GlcNAc
# In short: as §1
# [15] = molecular target: GlcNAc(b1-3)Gal(b1-4)GlcNAc(b1-2)Man(a1-3)[GlcNAc(b1-3)Gal(b1-4)GlcNAc(b1-2)Man(a1-6)]Man(b1-4)GlcNAc(b1-4)[Fuc(a1-6)]GlcNAc
# In short: as §1
# [16] = molecular target: GlcNAc(b1-3)Gal(b1-4)GlcNAc(b1-2)[GlcNAc(b1-3)Gal(b1-4)GlcNAc(b1-6)]Man(a1-6)[GlcNAc(b1-3)Gal(b1-4)GlcNAc(b1-2)Man(a1-3)]Man(b1-4)GlcNAc(b1-4)GlcNAc
# In short: as §1
# [17] = molecular target: GlcNAc(b1-3)Gal(b1-4)GlcNAc(b1-3)Gal(b1-4)GlcNAc
# In short: as §1
# [18] = molecular target: GlcNAc(b1-3)Gal(b1-4)GlcNAc(b1-3)Gal(b1-4)GlcNAc(b1-2)Man(a1-3)[GlcNAc(b1-3)Gal(b1-4)GlcNAc(b1-3)Gal(b1-4)GlcNAc(b1-2)Man(a1-6)]Man(b1-4)GlcNAc(b1-4)GlcNAc
# In short: as §1
# [19] = molecular target: GlcNAc(b1-3)Gal(b1-4)GlcNAc(b1-3)Gal(b1-4)GlcNAc(b1-2)Man(a1-3)[GlcNAc(b1-3)Gal(b1-4)GlcNAc(b1-3)Gal(b1-4)GlcNAc(b1-2)Man(a1-6)]Man(b1-4)GlcNAc(b1-4)[Fuc(a1-6)]GlcNAc
# In short: as §1
binder,measurement,setting,value
F17-L (Escherichia coli) (protein) GPDDYVPSQIAVNTSTLPGVVIGPADAHTYPRVIGELAGTSNQYVFNGGAIALMRGKFTPALPKIGSITYTFHQGNSRDSSDFDIYDIGVSGLGIIIGMAGYWPATPLVPINSSGIYIDPVGANTNPNTYNGATASFGARLFVAFVATGRLPNGYITIPTRQLGTILLEAKRTSLNNKGLTAPVMLNGGRIQVQSQTHHHHHH,glycan array binding signal (z-score),[1],0.13
same,glycan array binding signal (z-score),[2],0.147
same,glycan array binding signal (z-score),[3],-0.052
same,glycan array binding signal (z-score),[4],-0.112
same,glycan array binding signal (z-score),[5],-0.237
same,glycan array binding signal (z-score),[6],-0.096
same,glycan array binding signal (z-score),[7],-0.075
same,glycan array binding signal (z-score),[8],-0.096
same,glycan array binding signal (z-score),[9],-0.055
same,glycan array binding signal (z-score),[10],-0.082
same,glycan array binding signal (z-score),[11],-0.083
same,glycan array binding signal (z-score),GlcNAc(b1-3)Fuc,-0.033
same,glycan array binding signal (z-score),GlcNAc(b1-3)Gal,-0.05
same,glycan array binding signal (z-score),[12],-0.124
same,glycan array binding signal (z-score),GlcNAc(b1-3)Gal(b1-4)Glc,-0.078
same,glycan array binding signal (z-score),[13],-0.098
same,glycan array binding signal (z-score),[14],-0.106
same,glycan array binding signal (z-score),[15],-0.03
same,glycan array binding signal (z-score),[16],-0.012
same,glycan array binding signal (z-score),[17],-0.104
same,glycan array binding signal (z-score),[18],0.024
same,glycan array binding signal (z-score),[19],-0.02
